A number of entries come with more than one value. The list is limited to them. An entry can have further records. The values listed for one entry repeat one measurement (runs, samples, wells, individuals or studies). Signs of the kind (2×) say how often a value occurs here.
System: COR L88 complex tumor spheroid viability
Test: Anticancer human tumor COR L88 cell line growth inhibition;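 further: compound exposure lasted 7 days before viability readout; percent of DMSO vehicle-treated spheroids = 100%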
Conditions: compound alone 0.003 µM; stronger effect = lower value
From the text: Multicellular complex tumor spheroid response to DNA repair inhibitors in combination with DNA-damaging drugs
This study explores the anticancer activities of DNA-damaging drugs and inhibitors of DNA damage repair, both as single agents and in combinations. Complex tumor spheroids comprised of malignant cells, endothelial cells and mesenchymal stem cells served as an in vitro model for human solid tumors. This model system incorporates physiologically relevant features and patient-derived or established malignant cell lines with clinically relevant genetic alterations from many tumor types. Twenty-six patient-derived or established malignant cell lines were evaluated representing sarcoma, melanoma, small cell lung cancer (SCLC), non-small cell lung cancer (NSCLC), as well as bladder, ovarian and pancreatic cancers. The concentration ranges selected for each drug and investigational agent were based upon clinically achievable concentrations if the clinical Cmax of the agent was known.
Compounds. […] If the clinical Cmax for an agent had not been determined, the highest concentration tested was 10 microM. […]

SMILES: CC[C@@]1(O)C(=O)OCc2c1cc1n(c2=O)Cc2cc3c(CN(C)C)c(O)ccc3nc2-1
- viability, T/C: 91.2, 92.7, 99.1, 101 (2×), 84.9, 103 (2×), 113, 96.4%

Source: PubChem BioAssay AID1845201 (Molecular Pharmacology Branch, DTP, NCI, 2023)
